Measurements published in patent US20090241222A1, “TANDEM REAPEAT DNA CONSTRUCTS PRODUCING PROTEINS THAT ATTACK PLANT PATHOGENIC VIRUSES, FUNGI, AND BACTERIA BY DISRUPTING TRANSCRIPTION FACTORS ESSENTIAL FOR REPLICATION THEREOF IN PLANTS” (priority 2008, published 2009).

Tested on: pathogenic fungus present in the test tube water
Assay: Portulaca resistance to pathogenic fungus induced by picolinic acid (FIG. 31)
Conditions: treatment for 10 days, 6 mM PA

How did the “fungal toxin disease resistance” value turn out when `O=C(O)c1ccccn1` [picolinic acid, 2-pyridine carboxylic acid] was run?
Its value is “fungal toxin disease resistant”.
